# Measurements: PubChem BioAssay AID1745853 (National Center for Advancing Translational Sciences (NCATS), 2022)
# Where “and” joins values, the source holds several entries; their conditions need not be identical. Equal entries are not always repeated. This is one part of the list. Shown are side measurements of this screen, not its main read-out; they come without a call.
# What was measured:
# Assay in all cases: Primary Screen for Target Class Profiling of Small Molecule Inhibitors of Methyltransferases
# [1] = molecular target: Glycine N-methyltransferase (Homo sapiens) (UniProt Q14749); conditions: purified enzyme, MTase-Glo SAH luminescence; measured here: GNMT inhibition; at 40 µM; stronger effect = lower value
# How it was run: (§1)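 Each enzyme was assayed with SAM and its substrate. SAH formation detected by MTase-Glo luminescence; single-point 40 uM screen[…].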
# [2] = molecular target: Guanidinoacetate N-methyltransferase (Homo sapiens) (UniProt Q14353); conditions: purified enzyme, MTase-Glo SAH luminescence; measured here: GAMT inhibition; at 40 µM; stronger effect = lower value
# How it was run: as §1
# [3] = molecular target: Histamine N-methyltransferase (Homo sapiens) (UniProt P50135); conditions: purified enzyme, MTase-Glo SAH luminescence; measured here: HNMT inhibition; at 40 µM; stronger effect = lower value
# How it was run: as §1
# [4] = molecular target: Nicotinamide N-methyltransferase (Homo sapiens) (UniProt P40261); conditions: purified enzyme, MTase-Glo SAH luminescence; measured here: NNMT inhibition; at 40 µM; stronger effect = lower value
# How it was run: as §1
# [5] = molecular target: Phenylethanolamine N-methyltransferase (Homo sapiens) (UniProt P11086); conditions: purified enzyme, MTase-Glo SAH luminescence; measured here: PNMT inhibition; at 40 µM; stronger effect = lower value
# How it was run: as §1
# On the % scale 0 is the no-effect control and ±100 the full control effect.
Structure (SMILES),"activity change, negative = inhibition [1]","activity change, negative = inhibition [2]","activity change, negative = inhibition [3]","activity change, negative = inhibition [4]","activity change, negative = inhibition [5]"
O=C1CCCN1CCCN1C(=O)[C@@H]2C[C@@H](O)CN2C2(CN(C3CCC(F)(F)CC3)C2)C1=O,-3.03%,-4.35%,-0.19%,-4.87%,-10%
Cc1ccc(NC(=O)c2cc3c(s2)CN(C2CC2)C3)cc1,-16.8%,-2.55%,-12.2%,-5.18%,-14.9%
CCn1c(CO)nnc1C1CC(NC(=O)c2[nH]c3ccc(OC)cc3c2C)C1 (stereo not given),-12.7%,-11%,-8.04%,-21.1%,-22.8%
COC(=O)c1cc2n(n1)CC(C)(C(=O)NC1CCCC1)N(c1cccc(Cl)c1C)C2=O (stereo not given),0.129%,0%,3.24%,4.46%,2.12%
C=CCn1c(=O)c2ccc(C(=O)NCC(C)C)cc2n2c(=O)n(CC(=O)Nc3ccccc3F)nc12,2.06%,0%,2.54%,0.109%,-0.265%
CCc1ccc(CN2C(=O)c3ccc(-c4ccccc4)n3CC2(C)C(=O)NC2CCC(C)CC2)cc1 (stereo not given),1.07%,2.8%,-2.15%,-1.36%,-0.849%
Cc1cc2c(cc3n2CC(C)(C(=O)NC2CCCCCCC2)N(Cc2ccc(F)cc2)C3=O)o1 (stereo not given),-4.51%,2.18%,0.198%,-2.96%,-2.16%
O=C(O)C1CCCN(CCC=C(c2ccccc2)c2ccccc2)C1 (stereo not given),-4%,6.04%,2.27%,-8.17%,-0.053%
CC(C)c1cc(-c2n[nH]c(=O)n2-c2ccc3c(ccn3C)c2)c(O)cc1O,-41.2%,-19%,-47.2%,-52.7%,-32.6%
CCCN1C(=O)c2c(C(=O)NCc3ccccc3OCC)ncn2CC1(C)C(=O)NC1CCCC1 (stereo not given),3.61%,0%,1.58%,5.63%,6.95%
CC1(C(=O)NC2CCCC2)Cn2c(ccc2-c2ccco2)C(=O)N1CCN1CCCC1 (stereo not given),-3.07%,2.27%,6.56%,5.81%,1.57%
CC(=O)O[C@]1(C(C)=O)CC[C@H]2[C@@H]3C=C(Cl)C4=CC(=O)[C@@H]5C[C@@H]5[C@]4(C)[C@H]3CC[C@@]21C,-5.42% and -11%,-7.73% and 1.55%,-10.5% and -3.32%,-34.7% and -19.1%,-12.9% and -3.9%
Cc1ccc(N2C(=O)c3cc4ccccc4n3CC2(C)C(=O)NCCC(C)C)cc1C (stereo not given),2.53%,0.084%,4.9%,3.65%,-1.39%
COCC1CCN(c2ccc(-c3nc(-c4ccccc4C)no3)cn2)C1 (stereo not given),-12.7%,-11%,-29.5%,-4.43%,-3.9%
Cc1cc2c(cc3n2CC(C)(C(=O)NC2CCCCCC2)N(C2CCCC2)C3=O)o1 (stereo not given),1.13%,1.03%,3.81%,2.25%,-1.23%
O=C(C1CCCN1C(=O)C1CCCC1)N1CCC(N2Cc3ccccc3C2=O)CC1 (stereo not given),-6.02%,-9.75%,-4.7%,-22.9%,-6.86%
CCCCNc1nc2c(-c3cccc(C)c3)nnn2c2ccccc12,-5.84%,-1.94%,-8.1%,-6.44%,-19.7%
O=C(Nc1ccc(C(O)(C(F)(F)F)C(F)(F)F)cc1)c1ccc(C(F)(F)F)cc1,-3.27%,14.4%,10.3%,-6.44%,7.75%
CCCn1c(=O)c2ccc(C(=O)NC(C)C)cc2n2c(=O)n(CC(=O)Nc3ccc(C)cc3)nc12,4.53%,1.58%,1.52%,8.5%,-0.977%
CC1(C(=O)NCc2ccccc2)Cn2c(cc3ccccc32)C(=O)N1CCc1ccco1 (stereo not given),-1.26%,4.96%,4.81%,-9.12%,-2.37%
COc1ccc(CNC(=O)c2ncn3c2C(=O)N(C2CC2)C(C)(C(=O)NCc2cccc(C)c2)C3)cc1 (stereo not given),2.56%,5.32%,13.7%,6.04%,11%
COc1ccc(-c2ccc3ncc4c(c3c2)n(-c2ccc(N3CCNCC3)c(C(F)(F)F)c2)c(=O)n4C)cn1,-46.6%,-11.6% and -12.7%,-47.4%,-35.8% and -30.2%,-28.3% and -39%
CCC(C)C(=O)Oc1cc(C)ccc1C1(COC(=O)C(C)C)CO1 (stereo not given),-1.02%,-1.89%,8.21%,-15.1%,-0.547%
COc1cccc(CNC(=O)Cn2ccc3cc(S(=O)(=O)N4CCCCC4)ccc32)c1,4.52%,4.65%,-1.08%,-8.78%,-0.22%
CC(C)Cn1c(=O)c2ccc(C(=O)NC(C)C)cc2n2c(SCC(=O)c3ccccc3)nnc12,0.233%,0%,-1.76%,0.544%,1.31%
CN(C)CCNC(=O)c1ccnc(-c2nnc3ccc(N(C)c4ccccc4)nn23)c1,-7%,-7.48%,-55.3%,-15.3%,-7.34%
CC1(C(=O)NC2CCCCCC2)Cn2nc(-c3cccs3)cc2C(=O)N1Cc1ccc(F)cc1 (stereo not given),5.77%,0.906%,9.07%,3.46%,3.14%
O=C(N[C@@H]1CCOC[C@H]1OCc1ccccn1)c1cccc(-n2cnnc2)c1,-2.01%,0.571%,-0.498%,-0.308%,5.28%
CCCCNc1ncc2c(-c3ccc(CN4CCN(C)CC4)cc3)cn(C3CCC(O)CC3)c2n1 (stereo not given),-8.46%,0.029%,-1.22%,-23.1%,-3.67%
